About 540 (0.36%) of roughly 150,000 compounds showed an effect of 50% or more. This is one part of the list.
system: Plasmodium falciparum; assay: Primary screen in NF54 nanoGlo assay, in single point, at 2uM, 72h; a lower Z score goes with more inhibition; format: functional, Erythrocyte; conditions: timepoint 72 hour

| SMILES | % Inhibition [%] | Z score |
| --- | --- | --- |
| Cc1nonc1C(=O)N[C@H]1CC(=O)N(Cc2cccc3ccccc23)C1 | -11 | 1.65 |
| Cc1ccccc1NC(=O)Cn1nc2c3cc(Cl)ccc3ncn2c1=O | 9 | -1.41 |
| COc1ccc(CN2CC[C@H]2C(=O)N[C@H]2CC[C@@H](CO)CC2)cc1 | -10 | 1.98 |
| Cc1ccc(-c2c(C(=O)NC3CCN(C(C)C)CC3)csc2C)cc1 | 11 | -1.01 |
| COC(=O)CN(CC#Cc1ccc(F)cc1)C(C)(C)C | -18 | 1.97 |
| Cn1nccc1C1CCN(c2nc(N)c3cnn(C)c3n2)CC1 | 5 | -0.9 |
| CC(C(=O)NCC1CCCO1)N(C)CCOc1cccc(F)c1 (stereo not given) | -10 | 1.31 |
| CN1C(=O)CC[C@]2(CNC(=O)c3ccnn3C)CCCC=C12 | 11 | -1.57 |
| Cc1ccn2ncc(C(=O)N3CCC34COC4)c2c1 | 2 | -0.33 |
| Cc1sc(=O)n(Cc2cc(-c3cccs3)on2)c1-c1ccccc1 | 0 | -0.06 |
| COC[C@H](C)C1CCN(C(=O)CCN2CCCCCC2)CC1 | -1 | 0.08 |
| Cc1ccc([C@@H]2Cn3nnc(-c4nc(-c5ccccc5F)no4)c3CO2)c(C)c1 | -14 | 1.3 |
| CCc1nc(C)c(C(=O)N[C@H]2CCCN(Cc3ncc[nH]3)CC2)o1 | -12 | 1.48 |
| COC(=O)c1ccc2[nH]c(CNS(=O)(=O)C3(C)CC3)nc2c1 | 1 | -0.14 |
| COC(=O)C(C)N(C)C(=O)C(C)Oc1ccc(C(C)C)c(C)c1 (stereo not given) | -9 | 1.33 |
| CCN(Cc1nc(C(C)(C)C)co1)[C@H]1CCS(=O)(=O)C1 | -3 | 0.33 |
| O=C(Nc1cc(F)cc(F)c1)[C@@H]1CCCCN1CCN1CCCCC1 | 0 | 0.03 |
| Cn1ccnc1CN1CCCC12CCN(c1ccc3ncccc3c1)CC2 | -4 | 0.72 |
| O=C(NC[C@H]1CCCC1(F)F)Nc1ccc2c(n1)CCC2 | -10 | 1.72 |
| Cc1cc(C(C)NCC(=O)N2CCCC(C)C2)c(C)o1 (stereo not given) | -3 | 0.43 |
| COC1(c2nc(-c3cc(C)cc(C)n3)no2)CCOCC1 | 2 | -0.32 |
| COC(=O)CC1(NCc2ccc3nc(C)ccc3c2)CCOCC1 | 15 | -2.9 |
| COc1ccc([C@H]2C(=O)N(C3CCCCC3)CC(=O)N2Cc2ccc(C)cc2)cc1 | -6 | 0.74 |
| COCCC[C@]1(C(=O)O)CCCN(C(=O)c2n[nH]c3c2CCCC3)C1 | 17 | -2.21 |
| Cc1cc(C)c(CN[C@@H](CCO)C(F)F)cc1C | 9 | -1.06 |
| Cn1ccc(C(=O)NC2(c3ccc(Cl)c(Cl)c3)CC2)cc1=O | 2 | -0.33 |
| CCCCS(=O)(=O)NC[C@H]1CCCN(C)C1 | 1 | -0.18 |
| COc1ncccc1CN1CCC(C)C(OC)C1 (stereo not given) | -1 | 0.21 |

| SMILES | % Inhibition [%] | Z score |
| --- | --- | --- |
| Cc1c(C#N)c(N(C)C[C@H](C)C(=O)O)nc2ccccc12 | -5 | 0.67 |
| O=C(CC1CC(c2ccccc2)C1)NCCCc1nc(=O)[nH][nH]1 (stereo not given) | 1 | -0.11 |
| Cc1ccc(COC2CN(C(=O)COc3cccc(C)c3)C2)cc1 | -14 | 1.26 |
| COc1cccc(CN2CCCOCCNC(=O)[C@@H]3CCCC[C@@H]32)c1OC | 5 | -0.78 |
| CC(C)[C@](C)(CO)NC(=O)C1CCC(O)CC1 (stereo not given in full) | 6 | -0.99 |
| CCN1CCC(N(CCc2ccccn2)Cc2cc(C)no2)CC1 | 2 | -0.34 |
| O=C(C1CCCCC1)N1c2ncnn2C2(CCCCC2)[C@@H]2CCCC[C@@H]21 | -12 | 1.94 |
| CN(CCN1CCOC1=O)c1noc(-c2ccccc2)n1 | -8 | 1.36 |
| COc1ccc(-c2cnc3ncnn3c2N2CCCN(C(=O)c3cc(F)c(F)cc3F)CC2)cc1OC | 2 | -0.35 |
| CC1(CCNC(=O)N[C@H]2CC(C)(C)c3ccccc32)OCCO1 | -12 | 1.64 |
| CC1(C)CN(CC(=O)N(c2ccccc2)C2CCCCC2)CCN1CC(F)(F)F | -4 | 0.48 |
| CCN1C[C@@H](c2ccccc2)CC2(CCN(Cc3cnc(COC)nc3)CC2)C1 | -14 | 1.74 |
| CCCn1c(=O)c(C)nc2cc(-c3noc([C@H]4CC(=O)N(c5ccccc5)C4)n3)ccc21 | -12 | 1.2 |
| CN1CCN(Cc2cnc(-c3ccccc3)o2)CC1=O | -8 | 1.56 |
| Cc1ccc(-c2nc([C@H]3CCOC3)no2)cn1 | -12 | 1.55 |
| O=C(O)c1cn2c3c(cccc3c1=O)CC2 | 8 | -0.93 |
| O=C(CCC1CCN(Cc2nc3ccccc3s2)CC1)NC[C@H]1CCCO1 | -15 | 1.36 |
| CN(c1nc(CN(C)[C@H]2CCN(S(C)(=O)=O)C2)cs1)C1CC1 | -4 | 0.78 |
| COc1ccc(OC)c2nc(N3CCCC3)c(CN(Cc3ccc4c(c3)OCO4)C(=O)c3[nH]nc4c3CCCC4)cc12 | 6 | -1.15 |
| CC(C)(C)C(=O)N1CCC(OC2CCN(Cc3ccccc3)CC2)CC1 | -1 | 0.1 |
| CN(CC(=O)Nc1cccc(F)c1)C(=O)CC1CCCC1 | 3 | -0.4 |
| COC(=O)Nc1cccc(OS(=O)(=O)C[C@]2(OC)CCOC2)c1 | -3 | 0.37 |
| COc1cccc([C@H](NC2CCNCC2)c2cc(F)ccc2OC)c1 | -1 | 0.15 |
| COc1c(C#N)ccc(=O)n1Cc1nc(C(F)(F)F)cs1 | -8 | 1.43 |
| CCN(C)C1(CNC(=O)[C@H]2CC[C@@H](O)CC2)CCCCC1 | 2 | -0.28 |
| COC[C@@H]1C[C@@H](OC)CN1C(=O)c1cc(C)on1 | -1 | 0.16 |
| N#Cc1cc(N2CCC[C@H]2CCc2ccccn2)ccn1 | -18 | 2.22 |

Source: ChEMBL document CHEMBL4888484, “Replenishing the malaria drug discovery pipeline: Screening and hit evaluation of the MMV Hit Generation Library 1 (HGL1) against asexual blood stage Plasmodium falciparum ,using a nano luciferase reporter read-out” (2022)
